Assay results from the supplement of paper PMC8728848.
The list shows a part of the results.

Tests used:
Test in all cases: glycan array binding signal (z-score within array); higher = stronger binding
Settings in all cases: glycan notation: IUPAC condensed, linker removed
[1] = molecular target: Fuc(a1-3)[Gal3S(b1-4)]GlcNAc6S
Outline: (§1)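 Columns mapping to the same glycan were averaged after glycan names were converted to IUPAC-condensed notation. The data come from 3228 arrays in the Consortium for Functional Glycomics database, limited to those with an available protein sequence. Binding is reported as a within-array Z-score averaged across arrays of one protein sequence and across linkers.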

[2] = molecular target: Fuc(a1-3)[GalNAc(b1-4)]GlcNAc
Outline: as §1

[3] = molecular target: Fuc(a1-3)[GalNAc(b1-4)]GlcNAc6S
Outline: as §1

Fuc(a1-4)GlcNAc = molecular target: Fuc(a1-4)GlcNAc
Outline: as §1

Fuc(b1-3)GlcNAc = molecular target: Fuc(b1-3)GlcNAc
Outline: as §1

Gal(a1-2)Gal = molecular target: Gal(a1-2)Gal
Outline: as §1

Gal(a1-3)Gal = molecular target: Gal(a1-3)Gal
Outline: as §1

Gal(a1-3)Gal(b1-3)GlcNAc = molecular target: Gal(a1-3)Gal(b1-3)GlcNAc
Outline: as §1

[4] = molecular target: Gal(a1-3)Gal(b1-3)GlcNAc(b1-2)Man
Outline: as §1

[5] = molecular target: Gal(a1-3)Gal(b1-3)GlcNAc(b1-2)Man(a1-3)[Gal(a1-3)Gal(b1-3)GlcNAc(b1-2)Man(a1-6)]Man(b1-4)GlcNAc(b1-4)GlcNAc
Outline: as §1

[6] = molecular target: Gal(a1-3)Gal(b1-3)GlcNAc(b1-3)GalNAc
Outline: as §1

[7] = molecular target: Gal(a1-3)Gal(b1-3)GlcNAc(b1-6)GalNAc
Outline: as §1

[8] = molecular target: Gal(a1-3)Gal(b1-3)[Fuc(a1-4)]GlcNAc(b1-2)Man(a1-3)[Gal(a1-3)Gal(b1-3)[Fuc(a1-4)]GlcNAc(b1-2)Man(a1-6)]Man(b1-4)GlcNAc(b1-4)GlcNAc
Outline: as §1

Gal(a1-3)Gal(b1-4)Glc = molecular target: Gal(a1-3)Gal(b1-4)Glc
Outline: as §1

Gal(a1-3)Gal(b1-4)GlcNAc = molecular target: Gal(a1-3)Gal(b1-4)GlcNAc
Outline: as §1

[9] = molecular target: Gal(a1-3)Gal(b1-4)GlcNAc(b1-2)Man
Outline: as §1

[10] = molecular target: Gal(a1-3)Gal(b1-4)GlcNAc(b1-2)Man(a1-3)[Gal(a1-3)Gal(b1-4)GlcNAc(b1-2)Man(a1-6)]Man(b1-4)GlcNAc(b1-4)GlcNAc
Outline: as §1

[11] = molecular target: Gal(a1-3)Gal(b1-4)GlcNAc(b1-3)GalNAc
Outline: as §1

[12] = molecular target: Gal(a1-3)Gal(b1-4)GlcNAc(b1-6)GalNAc
Outline: as §1

[13] = molecular target: Gal(a1-3)Gal(b1-4)[Fuc(a1-3)]GlcNAc
Outline: as §1

[14] = molecular target: Gal(a1-3)Gal(b1-4)[Fuc(a1-3)]GlcNAc(b1-2)Man(a1-3)[Gal(a1-3)Gal(b1-4)[Fuc(a1-3)]GlcNAc(b1-2)Man(a1-6)]Man(b1-4)GlcNAc(b1-4)GlcNAc
Outline: as §1

Gal(a1-3)GalNAc = molecular target: Gal(a1-3)GalNAc
Outline: as §1

[15] = molecular target: Gal(a1-3)[Gal(a1-4)]Gal(b1-4)GlcNAc
Outline: as §1

[16] = molecular target: Gal(a1-4)Gal(b1-3)GlcNAc(b1-2)Man(a1-3)[Gal(a1-4)Gal(b1-3)GlcNAc(b1-2)Man(a1-6)]Man(b1-4)GlcNAc(b1-4)GlcNAc
Outline: as §1

Gal(a1-4)Gal(b1-4)Glc = molecular target: Gal(a1-4)Gal(b1-4)Glc
Outline: as §1

Gal(a1-4)Gal(b1-4)GlcNAc = molecular target: Gal(a1-4)Gal(b1-4)GlcNAc
Outline: as §1

[17] = molecular target: Gal(a1-4)Gal(b1-4)GlcNAc(b1-2)Man(a1-3)[Gal(a1-4)Gal(b1-4)GlcNAc(b1-2)Man(a1-6)]Man(b1-4)GlcNAc(b1-4)GlcNAc
Outline: as §1

[18] = molecular target: Gal(a1-4)Gal(b1-4)GlcNAc(b1-3)Gal(b1-4)Glc
Outline: as §1

Gal(a1-4)GlcNAc = molecular target: Gal(a1-4)GlcNAc
Outline: as §1

Gal(a1-6)Glc = molecular target: Gal(a1-6)Glc
Outline: as §1

Gal(b1-2)Gal = molecular target: Gal(b1-2)Gal
Outline: as §1

Gal(b1-3)Gal = molecular target: Gal(b1-3)Gal
Outline: as §1

Gal(b1-3)Gal(b1-4)GlcNAc = molecular target: Gal(b1-3)Gal(b1-4)GlcNAc
Outline: as §1

Gal(b1-3)GalNAc = molecular target: Gal(b1-3)GalNAc
Outline: as §1

[19] = molecular target: Gal(b1-3)GalNAc(a1-3)[Fuc(a1-2)]Gal(b1-4)Glc
Outline: as §1

[20] = molecular target: Gal(b1-3)GalNAc(a1-3)[Fuc(a1-2)]Gal(b1-4)GlcNAc
Outline: as §1

Gal(b1-3)GalNAc(b1-3)Gal = molecular target: Gal(b1-3)GalNAc(b1-3)Gal
Outline: as §1

B1: Epa13 (Candida glabrata) (protein)
chain: MGSSHHHHHHSSGLVPRGSHMASDSSENGYAHGCSPSIRAKLKPGLSMEIYSYALRPTDDHCWDSAYLDPMFPRTGYLTHKLLGKAEGIIGPLNFLAKNPACIPAVSTLPLAFHFPKPFTITNFTMLLYGYLSPKKTGKYTFKLLADDLLLMNFGADNAFDCCSHDATKDNIGEYVAYSVWPGVNKNVTVYLESGIYYPLRLFFNNRDAIAQLDFAYYFNDSPIRQTDFSGMFFSIPDSVKCPANI
B1 was tested, and the “glycan array binding signal (z-score)” value [1] was -0.376, the “glycan array binding signal (z-score)” value [2] was 0.123 and the “glycan array binding signal (z-score)” value [3] was -0.565. The “glycan array binding signal (z-score)” value (Fuc(a1-4)GlcNAc) was -0.281, the “glycan array binding signal (z-score)” value (Fuc(b1-3)GlcNAc) was -0.246 and the “glycan array binding signal (z-score)” value (Gal(a1-2)Gal) was -0.328. For the same binder, the “glycan array binding signal (z-score)” value (Gal(a1-3)Gal) was 0.919, the “glycan array binding signal (z-score)” value (Gal(a1-3)Gal(b1-3)GlcNAc) was 0.824 and the “glycan array binding signal (z-score)” value [4] was 1.21. The “glycan array binding signal (z-score)” value [5] was 0.899, the “glycan array binding signal (z-score)” value [6] was -0.067 and the “glycan array binding signal (z-score)” value [7] was 1.13. For the same binder, the “glycan array binding signal (z-score)” value [8] was 0.566, the “glycan array binding signal (z-score)” value (Gal(a1-3)Gal(b1-4)Glc) was 0.096 and the “glycan array binding signal (z-score)” value (Gal(a1-3)Gal(b1-4)GlcNAc) was 0.672. For the same binder, the “glycan array binding signal (z-score)” value [9] was 0.125, the “glycan array binding signal (z-score)” value [10] was 4.93 and the “glycan array binding signal (z-score)” value [11] was 0.561. For the same binder, the “glycan array binding signal (z-score)” value [12] was 0.545, the “glycan array binding signal (z-score)” value [13] was -0.236 and the “glycan array binding signal (z-score)” value [14] was 0.591. For the same binder, the “glycan array binding signal (z-score)” value (Gal(a1-3)GalNAc) was -0.28, the “glycan array binding signal (z-score)” value [15] was 1.47 and the “glycan array binding signal (z-score)” value [16] was 4.04. The “glycan array binding signal (z-score)” value (Gal(a1-4)Gal(b1-4)Glc) was 3.52, the “glycan array binding signal (z-score)” value (Gal(a1-4)Gal(b1-4)GlcNAc) was 4.15 and the “glycan array binding signal (z-score)” value [17] was 5.18. The “glycan array binding signal (z-score)” value [18] was 1.06, the “glycan array binding signal (z-score)” value (Gal(a1-4)GlcNAc) was 7.08 and the “glycan array binding signal (z-score)” value (Gal(a1-6)Glc) was 13.2. The “glycan array binding signal (z-score)” value (Gal(b1-2)Gal) was 4.04, the “glycan array binding signal (z-score)” value (Gal(b1-3)Gal) was -0.396 and the “glycan array binding signal (z-score)” value (Gal(b1-3)Gal(b1-4)GlcNAc) was -0.215. For the same binder, the “glycan array binding signal (z-score)” value (Gal(b1-3)GalNAc) was -0.281, the “glycan array binding signal (z-score)” value [19] was -0.084 and the “glycan array binding signal (z-score)” value [20] was -0.314. The “glycan array binding signal (z-score)” value (Gal(b1-3)GalNAc(b1-3)Gal) was -0.14.
